About 2,200 (0.71%) of roughly 310,000 compounds showed an effect of 50% or more. Effects have a minus sign here. The list shows a part of the results.

In this assay the target is human ether-à-go-go-related gene (hERG) potassium channel (human, UniProt Q12809). As to the kind of experiment: primary screen, population patch clamp on CHO cells stably expressing hERG.
human ether-à-go-go-related gene (hERG) potassium channel, sequence (Q12809 whole entry, looked up): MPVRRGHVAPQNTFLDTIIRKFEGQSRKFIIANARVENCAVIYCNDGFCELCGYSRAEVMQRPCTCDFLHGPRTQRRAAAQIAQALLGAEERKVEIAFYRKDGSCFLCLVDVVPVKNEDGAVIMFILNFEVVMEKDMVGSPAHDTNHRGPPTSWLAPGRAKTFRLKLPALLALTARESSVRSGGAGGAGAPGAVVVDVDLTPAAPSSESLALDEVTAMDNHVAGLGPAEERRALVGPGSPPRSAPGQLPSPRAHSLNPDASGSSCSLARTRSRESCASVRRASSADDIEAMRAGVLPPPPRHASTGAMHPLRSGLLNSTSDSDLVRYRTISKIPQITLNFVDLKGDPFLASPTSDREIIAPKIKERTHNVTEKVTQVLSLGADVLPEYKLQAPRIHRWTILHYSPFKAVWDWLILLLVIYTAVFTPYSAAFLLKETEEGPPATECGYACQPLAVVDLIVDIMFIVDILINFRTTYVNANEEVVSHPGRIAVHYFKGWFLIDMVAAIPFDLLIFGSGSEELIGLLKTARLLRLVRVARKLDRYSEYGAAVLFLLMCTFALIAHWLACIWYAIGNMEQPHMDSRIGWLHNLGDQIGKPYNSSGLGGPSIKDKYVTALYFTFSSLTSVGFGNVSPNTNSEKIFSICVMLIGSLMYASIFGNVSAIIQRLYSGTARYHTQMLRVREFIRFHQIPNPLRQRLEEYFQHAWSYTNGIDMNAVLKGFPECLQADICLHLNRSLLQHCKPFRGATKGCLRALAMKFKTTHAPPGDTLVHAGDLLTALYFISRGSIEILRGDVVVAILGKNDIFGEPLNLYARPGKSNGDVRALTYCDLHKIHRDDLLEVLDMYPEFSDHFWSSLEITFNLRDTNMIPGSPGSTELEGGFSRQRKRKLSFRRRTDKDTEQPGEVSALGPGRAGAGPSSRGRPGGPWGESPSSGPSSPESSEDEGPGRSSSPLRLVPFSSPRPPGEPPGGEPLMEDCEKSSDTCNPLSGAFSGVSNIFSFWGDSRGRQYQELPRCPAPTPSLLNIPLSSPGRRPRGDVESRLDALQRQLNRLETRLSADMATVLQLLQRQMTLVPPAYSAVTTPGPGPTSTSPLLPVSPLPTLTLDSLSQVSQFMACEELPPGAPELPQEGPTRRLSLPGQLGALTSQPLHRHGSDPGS
In the case of `CCOC(=O)c1c(C)n(C)c2ccc(OC(C)=O)cc12`, the “hERG current change (%, negative = inhibition) at 1uM” value came out at 5.13%. Take `CS(=O)Cc1cc(Oc2ccccc2)nc(-c2ccncc2)n1` (stereo not drawn): the “hERG current change (%, negative = inhibition) at 1uM” value was 1.15%. Under `Cc1cc(Cl)c(OCCCNC2CCCC2)c(Br)c1.O=C(O)C(=O)O` stands -6.84%; under `Cc1nc(/C(N)=N/OC(=O)c2ccc(Cl)cc2)c(C(F)(F)F)o1`, 9.64%; under `CC1CCCCN1C(=S)NCc1ccco1` (stereo not drawn), 6.7%. The same measure for `CCCCC(=O)Nc1ccc(NC(=O)CCCC)nc1`: -6.83%. Consider `CCn1c2ccccc2c2cc(/C=N/n3c(-c4cc(C)[nH]n4)n[nH]c3=S)ccc21`, for which the “hERG current change (%, negative = inhibition) at 1uM” value is 12.3%. The same measure for `COCCCn1c(=O)c2sccc2n(Cc2cc(C(=O)OC)ccc2OC)c1=O`: 8.26%; for `CN(CC(=O)Nc1cccc(S(=O)(=O)NC2=NCCCCC2)c1)Cc1ccc(C(C)(C)C)cc1.O=C(O)C(=O)O`: 12.9%; for `COc1ccc(N2C(=O)CN=C2Nc2nc(C)cc(C)n2)cc1`: 8.29%. `NCCCC[C@@H]1NC(=O)[C@H](CCC(=O)O)NC(=O)c2cc([N+](=O)[O-])cc(I)c2SC[C@@H](C(=O)NCC(N)=O)NC1=O`: the “hERG current change (%, negative = inhibition) at 1uM” value is recorded as 16.6%. Under `Cl.Cn1cnc(CCN)c1` stands 0.808%; under `O=C(O)CCCC(=O)NNc1nc(-c2ccccc2)c2cc(Cl)ccc2n1`, 19%; under `COC(=O)CCC(=O)c1ccn(S(=O)(=O)c2ccccc2)c1`, 16.1%. Under `O=C(NCCCc1ccccc1)c1cncc(Br)c1` stands 6.04%; under `COc1ccc(S(=O)(=O)N(CC(=O)N2CCN(C)CC2)c2ccccc2)cc1OC`, 7.51%.

With `CCCc1nnc(NC(=O)CCC(=O)NC2CCCCC2)s1`, the “hERG current change (%, negative = inhibition) at 1uM” value turned out to be 23.6%.

`CN(Cc1cnccn1)Cc1nc(Cc2ccccc2F)no1`: the “hERG current change (%, negative = inhibition) at 1uM” value amounted to 5.37%.

On to `COc1ccc(-n2c(=O)cc(N3CCOCC3)[nH]c2=O)cc1`, for which the “hERG current change (%, negative = inhibition) at 1uM” value is reported as 8.58%.

With `Cc1ccc(-n2nc(C)c3c(C)c(CCC(=O)O)c(C)nc32)cc1`, the “hERG current change (%, negative = inhibition) at 1uM” value is recorded as 8.11%. With `CCOc1nc(S(=O)(=O)c2ccc(C)cc2)c(Cl)s1`, the “hERG current change (%, negative = inhibition) at 1uM” value amounted to 7.74%. The same measure for `CCC1CCCCN1CCCNC(=O)CN1C(=O)c2cccnc2Oc2ccc(C)cc21` (stereo not drawn): 0.845%. In the case of `COc1cc(NS(=O)(=O)c2ccc(NC(=O)CN3C(=O)c4ccccc4C3=O)cc2)ncn1`, the “hERG current change (%, negative = inhibition) at 1uM” value amounted to 7.35%.

Take `CS(=O)(=O)N1CCN(c2ccccc2NC(=O)c2ccc(-c3ccc(Br)cc3)o2)CC1`: the “hERG current change (%, negative = inhibition) at 1uM” value was -2.63%. Take `CN(C)S(=O)(=O)c1ccc(C(=O)NCC(=O)N/N=C/c2cccs2)cc1`: the “hERG current change (%, negative = inhibition) at 1uM” value worked out at 13.5%. For the molecule `O=C(CN1C(=O)NC2(CCc3ccccc32)C1=O)Nc1ccccc1C(F)(F)F` (stereo not drawn), the “hERG current change (%, negative = inhibition) at 1uM” value stood at 8.32%. The same measure for `CN(C)c1ccc(CCc2ccc(N)cc2)cc1`: 16.9%; for `Cc1ccc(OCc2nnc(NC(=O)c3cccnc3)s2)cc1`: -1.05%; for `Br.NC1(N)OC(CN2C(=O)c3ccccc3C2=O)CS1` (stereo not drawn): 4.86%. The same measure for `COc1cccc(C(=O)NCC2(c3ccc(OC)c(OC)c3)CCCC2)c1`: 17%. The same measure for `CCn1c(NC(=O)C2CCCCC2)nc2ccccc21`: 15%. `CCCN(CCC)CCNC(=O)C1(O)c2ccccc2NC(=O)N1c1cccc(OC)c1` (stereo not drawn): the “hERG current change (%, negative = inhibition) at 1uM” value worked out at 11.8%. Regarding `COc1ccc(S(=O)(=O)NCC(=O)N(CC2CCCO2)C(C(=O)NC2CCCC2)C(C)C)cc1` (stereo not drawn), the “hERG current change (%, negative = inhibition) at 1uM” value is given as 1.13%. Under `CCCCN(C(=O)Cc1cccs1)c1nnc(-c2cccnc2)s1` stands 3.44%; under `CCSc1nnc(CCNS(=O)(=O)c2ccc(C(C)=O)cc2)n1C`, 11.7%; under `CCOC(=O)Cn1cc(C(=O)c2ccco2)c2ccccc21`, 7.89%.

With `CC1CCCC(NC(=O)CN(C)CC(=O)Nc2ccc(F)cc2)C1C` (stereo not drawn), the “hERG current change (%, negative = inhibition) at 1uM” value is listed as -2.28%. Under `CC1CN=C(NCc2ccccc2)S1` (stereo not drawn) stands 14.9%. Under `O=C(CN1CCCCC1)NN(Cc1ccccc1)c1ccccc1.O=C(O)C(=O)O` stands -28%; under `Cc1ccc(C)c(NC(=O)CCN2CCC(C)CC2)c1`, 5.36%; under `Cc1nc2sc(C(c3ccco3)N3CCN(c4ccc(F)cc4)CC3)c(O)n2n1` (stereo not drawn), -6.73%. The same measure for `Br.Cc1ccc(C(=O)Cn2c(=N)n(N)c3ccccc32)cc1`: 8.01%; for `O=C(NCC(F)(F)F)N1CCOCC1`: 11.6%; for `Cc1nc2nc[nH]n2c(=O)c1NC(=O)CC12CC3CC(CC(C3)C1)C2`: 9.77%.

For `Cc1cccn2c(=O)c(C=O)c(NCc3ccccc3)nc12`, the “hERG current change (%, negative = inhibition) at 1uM” value stood at 8.55%.

`CCCCNc1nc(N(C)c2ccccc2)nc(-n2ccnc2)n1`: the “hERG current change (%, negative = inhibition) at 1uM” value stood at 2.87%. Under `COC(=O)C1=C(CS(=O)(=O)c2ccc(Cl)cc2)NC(=O)NC1c1ccc(O)c(OC)c1` (stereo not drawn) stands -0.572%; under `Cc1ccc(O/C=C2\OC(=O)c3ccccc32)cc1`, 13.1%. Regarding `O=C(NCC1COc2ccccc2O1)C1C2C=CC3(CN(Cc4ccccc4Cl)C(=O)C13)O2` (stereo not drawn), the “hERG current change (%, negative = inhibition) at 1uM” value is -4.57%. Under `COc1ccc(C(=O)COC(=O)C(CCSC)NS(=O)(=O)c2ccc(Cl)cc2)cc1` (stereo not drawn) stands 8.48%; under `CCCN(CCC)CC(=O)Nc1cccc2c1OCO2.Cl`, 10.6%; under `O=c1c2c(nc3nc(CCc4ccccc4)[nH]n13)CCC2`, -2.14%. The same measure for `COCCN1CCN(C(=O)c2cc(COc3ccc(F)cc3F)on2)CC1`: 5.1%; for `CCOc1ccccc1Nc1nc(-c2sc(NC(=O)c3ccccc3)nc2C)cs1`: 16.2%. Take `Cc1ncoc1C(=O)N1CCCC(C(=O)Nc2cccc(-c3ccc(F)cc3)c2)C1` (stereo not drawn): the “hERG current change (%, negative = inhibition) at 1uM” value was 4.88%. Under `Cc1ccc(NC(=O)CCn2cc(C(F)(F)F)ccc2=O)cc1` stands 17.1%; under `COc1ccc(OCC(=O)NNC(=O)c2nn(C)c(=O)c3ccccc23)cc1`, 6.51%. The same measure for `CC1CCN(S(=O)(=O)c2ccc(NC(=O)CN3C(=O)NC(C)(c4ccccc4)C3=O)cc2)CC1` (stereo not drawn): -7.82%; for `O=C(c1cc([N+](=O)[O-])ccc1Cl)N1CCN(Cc2ccccc2)CC1`: 10.3%. In the case of `CNc1c([N+](=O)[O-])cnn1-c1ccccc1Cl`, the “hERG current change (%, negative = inhibition) at 1uM” value is -13.4%. Consider `CCCOc1ccccc1C1NC(=O)NC(C)=C1C(=O)OCCOC(C)C` (stereo not drawn), for which the “hERG current change (%, negative = inhibition) at 1uM” value came out at 3.29%. `O=C(CSc1ccsc1[N+](=O)[O-])NCc1ccccc1`: the “hERG current change (%, negative = inhibition) at 1uM” value was 9.97%.

With `CCCCn1ccnc1C(=O)c1cccc(S(=O)(=O)N2CC(C)CC(C)C2)c1` (stereo not drawn), the “hERG current change (%, negative = inhibition) at 1uM” value is listed as -8.3%. On to `Cc1ccc(C)c(N2CCN(C(=O)c3ccc(CSc4nc5ccncc5[nH]4)cc3)CC2)c1`, for which the “hERG current change (%, negative = inhibition) at 1uM” value was 1.45%. Take `O=C(N/N=C/c1cccc(Oc2ccccc2)c1)c1cccc(O)c1`: the “hERG current change (%, negative = inhibition) at 1uM” value is reported as 15.3%. For the molecule `CC(C)(C)NC(=S)N/N=C/c1cccnc1`, the “hERG current change (%, negative = inhibition) at 1uM” value is recorded as 9.56%. The same measure for `Cn1c(=O)c2c(nc(NCC(O)CO)n2CCc2ccccc2)n(C)c1=O` (stereo not drawn): 7.57%. The same measure for `Nc1nc(CSCCO)nc(Nc2ccccc2)n1`: 8.26%. Under `COc1ccc(F)cc1S(=O)(=O)N1CCCN(S(=O)(=O)c2cc(F)ccc2OC)CC1` stands 7.98%; under `Cc1cc(Cl)c(S(=O)(=O)N(C)C)cc1OCC(N)=O`, 11.8%; under `O=C(Nc1ccc(C(=O)O)cc1)/C(=C\c1ccco1)NC(=O)c1ccc(Br)o1`, 4.99%. Take `O=C(N=C1SC2CS(=O)(=O)CC2N1c1ccccc1F)C1CCCCC1` (stereo not drawn): the “hERG current change (%, negative = inhibition) at 1uM” value worked out at 16.6%. For `Cc1oc(S(=O)(=O)N(C)C)cc1C(=O)Nc1ccc(Cl)cc1`, the “hERG current change (%, negative = inhibition) at 1uM” value was 16.7%.

Regarding `O=c1[nH]c(=O)n(Cc2ccc(F)cc2)c(O)c1C=Nc1ccc(Cl)cc1`, the “hERG current change (%, negative = inhibition) at 1uM” value is given as 10.5%.

For `CC(c1ccccc1)N1CC(C(=O)Nc2ccc(F)cc2)CC1=O` (stereo not drawn), the “hERG current change (%, negative = inhibition) at 1uM” value came out at 8.67%.

For the molecule `CCOc1cc(C(=O)Nc2c3c(nn2C(C)(C)C)CS(=O)C3)cc(OCC)c1OCC` (stereo not drawn), the “hERG current change (%, negative = inhibition) at 1uM” value was found to be 4.2%.

For the molecule `CCN1C(=O)/C(=C2/C=Cc3ccccc3N2CC)SC1=S`, the “hERG current change (%, negative = inhibition) at 1uM” value came to 5.2%. Regarding `COC(=O)CCS(=O)(=O)c1ccc(Cl)cc1`, the “hERG current change (%, negative = inhibition) at 1uM” value is 11.9%. The same measure for `CC(C)CC(c1nnnn1C1CCCCC1)N1CCN(C(=O)c2ccco2)CC1.Cl` (stereo not drawn): -11.3%. As to `Cc1nonc1NC(=O)CSc1nnc(N)s1`, the “hERG current change (%, negative = inhibition) at 1uM” value turned out to be 2.97%.

For the molecule `CCOC(=O)C1CCN(C(=O)COc2ccc(S(=O)(=O)NC(C)(C)C)cc2)CC1`, the “hERG current change (%, negative = inhibition) at 1uM” value was 7.89%.

Consider `CCc1ccc(/C=N/NC(=S)NCCc2ccccc2)cc1`, for which the “hERG current change (%, negative = inhibition) at 1uM” value came out at 6.19%. The same measure for `COc1cccc(CNC(=O)CCS(=O)(=O)c2ccc3c(c2)NC(=O)CO3)c1`: 6.65%. On to `CSc1nc(-c2ccccc2)[nH]c(=S)c1C(C)=O`, for which the “hERG current change (%, negative = inhibition) at 1uM” value is on record as 8.7%. As for `COc1ccc(/C(C)=N\NC(=O)CNC(=O)C(c2ccccc2)c2ccccc2)cc1OC`, the “hERG current change (%, negative = inhibition) at 1uM” value turned out to be 18.8%. The same measure for `CC(C)Nc1nnc(SCC(=O)Nc2ccc3c(c2)C(=O)c2ccccc2C3=O)s1`: 4.05%; for `CC(C)CNC(=S)NNC(=O)CC(C)O` (stereo not drawn): -3.23%. With `Cc1nn(-c2nc3ccccc3s2)c(N)c1-c1ccccc1`, the “hERG current change (%, negative = inhibition) at 1uM” value is recorded as 9.3%.

On to `Cn1c(=O)c2c(n(Cc3ccccc3)c1=O)NC(=O)C2CC(=O)O` (stereo not drawn), for which the “hERG current change (%, negative = inhibition) at 1uM” value is reported as 11.2%. On to `CCc1nnc(NC(=O)c2ccc(S(=O)(=O)N3CCCc4ccccc43)cc2)o1`, for which the “hERG current change (%, negative = inhibition) at 1uM” value is on record as 27.1%.

For the origin of these results see article PMC4336329 (PLoS ONE, 2015).
